# From paper PMC13161223, “Molecular anatomy of PLK1 master docking motifs” (Nature Communications, 2026)
# Key:
# [1] = target: T1, biotin-conjugated ^MBPCENP-U^58-114/pT78/pT98 (immobilised ligand of BLI) (human, UniProt Q71F23 58-114, phosphothreonine at 78; phosphothreonine at 98; biotin (Gly-Gly-Gly-Gly-Biotin conjugated to the C-terminal PLPETG peptide by sortase A)); assay: BLI; biotin-conjugated phosphorylated ^MBPCENP-U^58-114 immobilised on streptavidin sensors, ^MBPPBD or ^6HisPLK1^FL as analyte; 25 °C, 20 mM HEPES pH 7.5, 2.5% glycerol, 300 mM NaCl, 0.1 mM TCEP, 0.3 g/L BSA, 0.05% Tween20; one site for pT78, two sites (KD1, KD2) for pT98 and pT78/pT98; conditions: both partners purified
# T1 construct: source: E. coli BL21 (DE3), purified; phosphorylated in vitro with CDK1 and PLK1; biotin-labelled with sortase A; not shown: MBP, N-terminal, kept; PLPETG peptide conjugated with Gly-Gly-Gly-Gly-Biotin, C-terminal, kept
# T1 sequence (looked up): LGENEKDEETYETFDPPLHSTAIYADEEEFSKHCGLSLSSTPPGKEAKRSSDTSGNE
# [2] = target: T2, biotin-conjugated ^MBPCENP-U^58-114/pT98 (immobilised ligand of BLI) (human, UniProt Q71F23 58-114, phosphothreonine at 98; biotin (Gly-Gly-Gly-Gly-Biotin conjugated to the C-terminal PLPETG peptide by sortase A)); assay: as above; conditions: both partners purified
# T2 construct: source: E. coli BL21 (DE3), purified; phosphorylated in vitro with CDK1; biotin-labelled with sortase A; not shown: MBP, N-terminal, kept; PLPETG peptide conjugated with Gly-Gly-Gly-Gly-Biotin, C-terminal, kept
# T2 sequence (looked up): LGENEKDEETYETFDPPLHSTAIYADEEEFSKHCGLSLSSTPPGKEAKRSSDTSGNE
binder,measurement,setting,value
"^MBPPBD (6xHis-MBP-TEV-PLK1^[…]) (domain or fragment, PLK1, human, […] (Polo-box domain construct); The plasmids paragraph speaks of expression in insect cells, the purification paragraph of E. coli BL21 (DE3); TEV site between MBP and PLK1; source: E. coli BL21 (DE3), purified (HisTALON, SEC); not shown: MBP, N-terminal, kept) not shown","KD1 (primary, higher-affinity site)",[1],2.7 nM
same,"KD2 (secondary, lower-affinity site)",[1],1000 nM
same,koff of the site of KD1,[1],0.00012 s⁻¹
same,koff of the site of KD2,[1],0.018 s⁻¹
same,kon of the site of KD1,[1],45000 M⁻¹ s⁻¹
same,kon of the site of KD2,[1],18000 M⁻¹ s⁻¹
same,"KD1 (primary, higher-affinity site)",[2],16 nM
same,"KD2 (secondary, lower-affinity site)",[2],4 µM
same,koff of the site of KD1,[2],0.00071 s⁻¹
same,koff of the site of KD2,[2],0.029 s⁻¹
same,kon of the site of KD1,[2],45000 M⁻¹ s⁻¹
same,kon of the site of KD2,[2],7400 M⁻¹ s⁻¹
